# Variants at the background level are over-represented here.
# B1: tRNA (parent)
# chain: CUCUCGGUAGCCAAGUUGGUUUAAGGCGCAAGACUUUAAUUUAUCACUACGAAAUCUUGAGAUCGGGCGUUCGACUCGCCCCCGGGAGAUUUUUUCCUCGAGCAA
# Variants of: B1
# Assay: nonsense suppression (GFP-seq) (ratio to wild type); higher = more function; SUP4oc tRNA, yeast GFP reporter sort-seq
# How it was run: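 Yeast were grown in raffinose/galactose medium with 80 mg/L adenine, each strain bearing a genome-integrated ochre-suppressor tRNA variant from a ~3% random-mutation library, a galactose-driven GFP ochre reporter, and RFP. After sorting into GFP/RFP bins, every bin was sequenced on an Illumina platform at phred ≥30. The GFPSEQ value, a measure of nonsense suppression, is the weighted bin median GFP/RFP relative to the unmutated parent tRNA, using each variant's estimated cell share per bin as the weight. Only variants with ≥100 reads and ≥30 cells were included.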
row,Variant,nonsense suppression
1,U2A G7A A13G U22G C29U U63A U71C,≤ 0.026
2,U2C A31G C83A,≤ 0.026
3,C1U G66A,0.254
4,U2C C56G G65A C82G,≤ 0.026
5,U2C A23U G78C,≤ 0.026
6,C1U G6A C64G,≤ 0.026
7,U2A A9C U55A,≤ 0.026
8,C1U C56A U76C,≤ 0.026
9,U2A G61U G78C,≤ 0.026
10,C1U G7U G10C A13U G15U,≤ 0.026
11,C1U G26A,≤ 0.026
12,C1U G26C,≤ 0.026
13,C1U C72G G84U,≤ 0.026
14,U2A C12U G28C A74C,≤ 0.026
15,C1U C5A U76A,≤ 0.026
16,U2A G61A,0.0448
17,U2A A54C G65C C68G U76G,≤ 0.026
18,C1U U55A,≤ 0.026
19,C1U U55C,≤ 0.026
20,C1U C11U A60U U76A G84U,≤ 0.026
21,U2C A60C,0.0359
22,U2C U8A A24C A89C,≤ 0.026
23,U2C U8A G15U C56A,≤ 0.026
24,U2C A13C U20G U55C G66U,≤ 0.026

row,Variant,nonsense suppression
1,U2A A87G,≤ 0.026
2,C1U G10U A24U G26U U70A,≤ 0.026
3,U2A U71A U76A,≤ 0.026
4,U2C C5G G86C,≤ 0.026
5,U2A C11A U57G G78C,≤ 0.026
6,U2C G25U A33U U57G,≤ 0.026
7,U2A C56G A87C,≤ 0.026
8,U2A U16C,≤ 0.026
9,U2A A14C A54U U70A C77G C83A,≤ 0.026
10,C1U G78U,≤ 0.026
11,C1U C83U A89C,≤ 0.026
12,U2A G69C C72G U76C G88A,≤ 0.026
13,U2C A13C U21C C27G G32U U57C G88A,≤ 0.026
14,C1U U4G A87C,≤ 0.026
15,C1U C11U G61A U63A U76G,≤ 0.026
16,U2A U20A A31U,≤ 0.026
17,C1U U58C,≤ 0.026
18,U2A U22C U35G U57A A62C,≤ 0.026
19,U2C A33C,≤ 0.026
20,U2A C3U U57G A60U,≤ 0.026
21,U2C C3A A23U G69C G73C C79G,≤ 0.026
22,C1U U35A U55A,≤ 0.026
23,U2A U35A C56A G66A G69A,≤ 0.026
24,U2C C83A G86A A87C,≤ 0.026

row,Variant,nonsense suppression
1,U2A G84A,≤ 0.026
2,C1U G6U U55G,≤ 0.026
3,U2C U4C A13G,0.205
4,U2C G26C U58G G66A G67U,≤ 0.026
5,C1U G19C C56G,≤ 0.026
6,U2A U20C A24U,≤ 0.026
7,U2A A23U U70C C72G,≤ 0.026
8,C1U U2A C3A A14G A54G C56G,≤ 0.026
9,C1U G19A A54C U70C,≤ 0.026
10,C1U U8A G78U A89U,≤ 0.026
11,U2C G59A,≤ 0.026
12,C1U U2C C56G U58C A87U,≤ 0.026
13,U2A G86A,≤ 0.026
14,U2C G28U,≤ 0.026
15,U2C U4C,1.01
16,U2A G10C U21A,≤ 0.026
17,C1U G85C A89C,≤ 0.026
18,U2A A30U A60C,≤ 0.026
19,C1U G7U G15A U35A A62G,≤ 0.026
20,C1U C12G G32C A33G,≤ 0.026
21,U2C C68A,≤ 0.026
22,C1U G69C U71G G84U,≤ 0.026
23,U2A U17G G18U A24C C27G G59U G86A,≤ 0.026
24,U2C A13U C72A,≤ 0.026

row,Variant,nonsense suppression
1,C1U G85U,≤ 0.026
2,U2A A24U U35A G59A G69C,≤ 0.026
3,C1U G84A,≤ 0.026
4,C1U G84C,≤ 0.026
5,C1U C64A C80G,≤ 0.026
6,U2A A31C G65A U76G,≤ 0.026
7,U2C C3A C27U C83A,≤ 0.026
8,C1U U8G G65C U70C C72U G85A,≤ 0.026
9,U2A A13G A60G G67C,≤ 0.026
10,U2A U22A U55A G59A G69A,≤ 0.026
11,U2A A9U G10U G28C,≤ 0.026
12,U2C A24C A31G G84C,≤ 0.026
13,C1U U76A,≤ 0.026
14,U2C A9G G84A,≤ 0.026
15,C1U U4C A33G C72G,≤ 0.026
16,U2C A54C,≤ 0.026
17,U2A U63C A74G,≤ 0.026
18,U2C C3A A60G,≤ 0.026
19,U2A A74G G85A,≤ 0.026
20,U2C G18U G84C,≤ 0.026
21,U2C C81A,≤ 0.026
22,U2C C56G C83G,≤ 0.026
23,U2C A30G,≤ 0.026
24,U2A U55C,0.0451

row,Variant,nonsense suppression
1,U2C U16G C27A,≤ 0.026
2,C1U G66U G86A,≤ 0.026
3,U2A A89G,≤ 0.026
4,C1U G61A G85U,≤ 0.026
5,C1U C34A A87C,≤ 0.026
6,U2A U57C,≤ 0.026
7,U2C G15A A54U,≤ 0.026
8,U2A U8C A9G U21A,≤ 0.026
9,U2A G15U C64G C80A,≤ 0.026
10,U2C A9U U76A,≤ 0.026
11,U2C G10U A24G,≤ 0.026
12,U2A C11U G28C C34U U55C G69U U70C,≤ 0.026
13,C1U G19C A60G G66C,≤ 0.026
14,U2C U16A G59U,≤ 0.026
15,C1U G18C C77G,≤ 0.026
16,U2C C12U G61U U63A,≤ 0.026
17,U2C C5A C75G C83A,≤ 0.026
18,C1U U21A A24U A74U,≤ 0.026
19,U2A G32C C79G,≤ 0.026
20,C1U U22C U57G C83U,≤ 0.026
21,U2A U4G C79A G86U,≤ 0.026
22,U2A U4G U70C,≤ 0.026
23,C1U U4C U76A,≤ 0.026
24,U2A U20G G28U C64U,≤ 0.026

row,Variant,nonsense suppression
1,U2A C27U A31G U57C,≤ 0.026
2,C1U U4A G32A U63A C80G,≤ 0.026
3,U2A G7C G73C,≤ 0.026
4,U2A C34G G85C A89C,0.25
5,C1U G19A A62U G65U G88C,≤ 0.026
6,U2A C34G,≤ 0.026
7,U2C C5G G10U G88A,≤ 0.026
8,C1U C11G C79U,≤ 0.026
9,U2C A9G G66C G67U,≤ 0.026
10,C1U G32C U57A U70G,≤ 0.026
11,C1U U20A U55A C80G,≤ 0.026
12,U2C C34A A62U G88U,≤ 0.026
13,U2C A54G A60C,≤ 0.026
14,U2A C11U G85A,≤ 0.026
15,C1U G7A G32A U35C G88U,≤ 0.026
16,C1U G15A,≤ 0.026
17,C1U G15U,≤ 0.026
18,U2A U71C G84C A87U,≤ 0.026
19,C1U C27A A89C,≤ 0.026
20,U2C G25U U35G C75A,≤ 0.026
21,U2A C79G,≤ 0.026
22,U2A U20G,≤ 0.026
23,U2A G18C A54C C68A,≤ 0.026
24,U2A C68U,0.18

row,Variant,nonsense suppression
1,U2A U21G G65U,≤ 0.026
2,U2A U21A C34U G86A,≤ 0.026
3,U2A C29G G61C G78A,≤ 0.026
4,U2C C5A G88U,≤ 0.026
5,C1U U57A C80A,≤ 0.026
6,C1U G15U G78U,≤ 0.026
7,C1U G19C,≤ 0.026
8,U2C G15A G32C,≤ 0.026
9,U2C G66C,≤ 0.026
10,C1U U17A U20C U57C G66A U76G,≤ 0.026
11,C1U U63C,≤ 0.026
12,C1U U2G U8A U21C A62C,≤ 0.026
13,U2C G26U U76A,≤ 0.026
14,U2A A9C U21A G26C,≤ 0.026
15,U2C A30U G32A G67C G73U,≤ 0.026
16,U2C G19U,≤ 0.026
17,U2A G18U G67U,≤ 0.026
18,U2A A9C C27A,≤ 0.026
19,U2A C5A U55A,≤ 0.026
20,U2A U55C C77G,≤ 0.026
21,C1U U22C A74U,≤ 0.026
22,C1U G15U U35G C77G G78A,≤ 0.026
23,U2C G7U G26U C34A,≤ 0.026

# Source: the RNAGym collection of RNA variant scans (doi:10.1101/gad.245936.114)
